The text below walks through data of ChEMBL document CHEMBL4888484, “Replenishing the malaria drug discovery pipeline: Screening and hit evaluation of the MMV Hit Generation Library 1 (HGL1) against asexual blood stage Plasmodium falciparum ,using a nano luciferase reporter read-out” (2022).

Structures are written as SMILES. The whole screen tested about 150,000 compounds, of which about 540 (0.36%) showed an effect of 50% or more. The list shows a part of the results.

By % Inhibition is commonly meant the drop in the measured response relative to a control, in per cent.

The test system of this assay is Plasmodium falciparum. Description: Primary screen in NF54 nanoGlo assay, in single point, at 2uM, 72h; a lower Z score goes with more inhibition. It is filed as functional, Erythrocyte. The conditions noted are these: timepoint 72 hour.
On to `CC#CCN1C(=O)Nc2ccccc2S1(=O)=O`, for which the “% Inhibition” value was -6% and the Z score came out at 0.8.

As for `Cc1cc2c(-c3cc(NCc4ccccn4)nc4[nH]ccc34)ncnc2s1`, the “% Inhibition” value is reported as -13% and the Z score was 2.26.

Take `CC(C)N1CCN(C(=O)[C@@H]2CC(F)(F)CN2C2CN(S(C)(=O)=O)C2)CC1`: the “% Inhibition” value is listed as -8% and the Z score was found to be 0.96.

As to `O=C(C1CCN(S(=O)(=O)c2ccc(-c3ccn[nH]3)o2)CC1)N1CCCC1`, the “% Inhibition” value is recorded as -5% and the Z score stood at 0.82.

As to `CCC(=O)N1CCCN(S(=O)(=O)c2ccc(C)cc2)[C@H]1c1ccc(OC)cc1`, the “% Inhibition” value is recorded as -3% and the Z score came to 0.43.

As for `CN(C)c1ccc(CN2C(=O)CN(C3CC3)C2=O)cn1`, the “% Inhibition” value came out at 34% and the Z score was -3.81.

Take `O=C(NC1CC1)[C@@H]1CCCN1S(=O)(=O)N1CCCCCC1`: the “% Inhibition” value turned out to be 10% and the Z score is -0.91.

As to `O=C(NCc1ccnc(OC2CCC2)c1)N1CCCO[C@@H](CF)C1`, the “% Inhibition” value is on record as -3% and the Z score was found to be 0.35.

As for `COc1ccc(N2CCN(c3cc(-n4nc(C)cc4C)ncn3)CC2)cc1`, the “% Inhibition” value is given as -8% and the Z score was 1.02.

In the case of `Cc1cc(CNC(=O)N2CCCC(F)(F)CC2)ccc1F`, the “% Inhibition” value was found to be 0% and the Z score is on record as 0.01.

As for `COc1cc(NC(=O)Cn2c(C)nc(-c3ccccn3)cc2=O)cc(OC)c1`, the “% Inhibition” value is reported as -8% and the Z score came to 1.04.

On to `Cc1ccsc1CN(CCN(C)C)C(=O)NCc1nccn1C(C)C`, for which the “% Inhibition” value was -1% and the Z score is listed as 0.16.

`O=C(COc1ccccc1Br)NCC1(N2CCOCC2)CCCCC1`: the “% Inhibition” value is on record as -3% and the Z score was found to be 0.39.

Take `Cc1cc(N[C@H]2CC(=O)NC2=O)ncn1`: the “% Inhibition” value is listed as -18% and the Z score is 2.33.

As to `COc1cnccc1C(C)NC(=O)NC(c1nc(C)cs1)C1CC1` (stereo not given), the “% Inhibition” value was -2% and the Z score was 0.32.

Take `CCc1ccc(CN(Cc2c(CC)nn(-c3cccc(C)c3)c2N2CCN(C)CC2)C2CC2)cc1`: the “% Inhibition” value is recorded as -12% and the Z score is reported as 1.28.

With `COc1cccc(CN2CC3(CCN(C(=O)c4cncn4C)CC3)CC2=O)c1`, the “% Inhibition” value is recorded as -4% and the Z score came to 0.57.

On to `O=C(COc1ccc(N2C(=O)C3C4CCC(C4)C3C2=O)cc1)c1ccc(Cl)cc1` (stereo not given), for which the “% Inhibition” value is -1% and the Z score is 0.12.

As for `O=C(NCc1nc(C2CC2)no1)Nc1cccc(F)c1`, the “% Inhibition” value was 7% and the Z score is -1.38.

Regarding `C/C=C/C(N)=N/Nc1nc2ccccc2s1`, the “% Inhibition” value is listed as -13% and the Z score is listed as 1.77.

With `COc1cc2cc(c1)C(=O)NCCCC(=O)N[C@H]1CN(C(=O)c3ccc4c(c3)CCC4)CC[C@@H]1OCc1cccc(c1)O2`, the “% Inhibition” value is -8% and the Z score is listed as 1.44.

As to `CS(=O)(=O)NC1CCN(C(=O)C2CC=CCC2)C1` (stereo not given), the “% Inhibition” value is on record as -8% and the Z score is on record as 1.4.

In the case of `CN(C)C(=O)N1CCN(Cc2ccc3ccccc3c2)[C@@H]2CS(=O)(=O)C[C@@H]21`, the “% Inhibition” value was -11% and the Z score is 1.3.

For `COCCCn1c(C)c(C)c(S(=O)(=O)c2ccccc2)c1NC(=O)c1ccc(C)cc1`, the “% Inhibition” value is listed as -1% and the Z score is 0.15.

With `CCC(NC(=O)c1c[nH]c(C)cc1=O)C(O)c1ccccc1F` (stereo not given), the “% Inhibition” value amounted to 34% and the Z score was -0.89.

With `C[C@@H](C(=O)N1CCN(c2ccccc2F)CC1)n1nc2c(cc1=O)CCC2`, the “% Inhibition” value was 10% and the Z score is listed as -1.3.

`COc1cc(-c2noc(C(C)(C)C)n2)ccc1OCc1cc(F)ccc1F`: the “% Inhibition” value was -9% and the Z score is 1.07.

`c1ccc(-c2nc[nH]c2C2CCCC2)cc1`: the “% Inhibition” value is -14% and the Z score was determined as 2.04.

Regarding `O=C(NC1CCC(C(F)F)CC1)c1ccn(C(F)F)n1` (stereo not given), the “% Inhibition” value is -2% and the Z score came out at 0.37.

For the molecule `O=C1c2cccc3cccc(c23)C(=O)N1C(c1ccccc1)c1ccccc1`, the “% Inhibition” value was -12% and the Z score was determined as 2.3.

For `O[C@@H](Cc1nc2ccccc2s1)c1ccccc1`, the “% Inhibition” value is 3% and the Z score was -0.51.

For the molecule `Cc1c(C(=O)N2C[C@H](O)[C@@H](F)C2)cnc2ccnn12`, the “% Inhibition” value is reported as -1% and the Z score was 0.24.

As to `NC[C@H]1Cc2cc(-c3cccnc3)ccc2O1`, the “% Inhibition” value is 3% and the Z score is -0.53.

With `C[C@@H](Cc1ccc(F)c(Br)c1)NS(=O)(=O)CC#N`, the “% Inhibition” value is listed as -7% and the Z score was found to be 0.64.

Take `O=C(NCCN1CCOCC1)C1CCN(c2ncnc3c2nc2n3CCCCC2)CC1`: the “% Inhibition” value came to 1% and the Z score is on record as -0.22.

With `COc1cccc(CC(=O)Nc2nc(C)no2)c1`, the “% Inhibition” value is given as -10% and the Z score is reported as 0.98.

For `O=C(NC1CC1)c1ccc2ccccc2c1`, the “% Inhibition” value is listed as -1% and the Z score is listed as 0.18.

As to `Cc1cc(NC(=O)CN)ccc1Br`, the “% Inhibition” value is on record as -9% and the Z score was 1.78.

For `O=C(c1ccoc1)N1CC[C@H](Oc2cnccn2)C1`, the “% Inhibition” value amounted to 6% and the Z score is -0.69.

For the molecule `CN1C[C@H]2CC[C@@H](C1)N(Cc1cccc(OCCO)c1)C2`, the “% Inhibition” value was -13% and the Z score was 1.43.

Turning to `COCCN(C)CCCNC1CCC(C(C)(C)C)CC1` (stereo not given), the “% Inhibition” value is listed as -1% and the Z score is listed as 0.14.

Take `O[C@H](c1ccccc1)c1nc(CCn2cnnn2)n(C2CCCCC2)n1`: the “% Inhibition” value is -4% and the Z score is 0.59.

For `CC(C)NC(=O)c1ncn2c1C(=O)N(C1CC1)[C@](C)(C(=O)NCc1ccc(F)cc1)C2`, the “% Inhibition” value is listed as -6% and the Z score is 0.56.

On to `Cc1nc(C(=O)N[C@@H](C)C(C)(C)C)c2n1CCCC2`, for which the “% Inhibition” value is -4% and the Z score is given as 0.7.

Consider `O=C(c1ccc2ccccc2n1)N1CCC[C@H](c2nnc3ccccn23)C1`, for which the “% Inhibition” value is 1% and the Z score was -0.14.

For `Cc1cnc(C)c(NCC[C@H](O)C(C)C)n1`, the “% Inhibition” value amounted to 0% and the Z score is 0.04.

For the molecule `COc1ccccc1-c1n[nH]c(=O)n1C1CCCC1`, the “% Inhibition” value is 8% and the Z score is recorded as -1.61.

As to `CN(CCc1noc(C2CN(Cc3cc(Cl)ccc3F)C2)n1)S(C)(=O)=O`, the “% Inhibition” value is -9% and the Z score turned out to be 1.46.

Take `Cc1ccc(CN2CCn3c(nn(CC4CC4)c3=O)C2)nc1`: the “% Inhibition” value was -12% and the Z score was found to be 2.1.

As for `CS(=O)(=O)C1CC2CCC(C1)N2C(=O)CCn1cnc2ccccc2c1=O` (stereo not given), the “% Inhibition” value is recorded as -29% and the Z score was determined as 3.71.

`Oc1cccc(O)c1CNc1ccnc(C2CC2)n1`: the “% Inhibition” value is reported as 2% and the Z score is reported as -0.4.

Consider `Cc1ccc(CNS(=O)(=O)c2cc(-c3ccnn3C(C)C)cs2)cc1`, for which the “% Inhibition” value is given as -11% and the Z score turned out to be 1.35.

Consider `Cc1ccc2c(c1)NN=C(C(=O)N1CCCCCC1)S2(=O)=O`, for which the “% Inhibition” value is recorded as 29% and the Z score is reported as -3.7.

For `COC(=O)c1ccc(C(=O)Nc2cccnc2)[nH]1`, the “% Inhibition” value is given as -16% and the Z score turned out to be 1.86.

Regarding `Cc1cc(S(=O)(=O)N[C@H](c2cccnc2)C2CC2)sc1C`, the “% Inhibition” value is -12% and the Z score is given as 1.51.
